Common to all, as to assay: co-IP; lysate of mouse ESCs expressing the FLAG-tagged bait; treated with 20 μg/ml RNase A for 40 min at 37°C before the Co-IP; anti-FLAG antibody (or control IgG) with Protein A/G magnetic beads overnight at 4°C; 5 washes with lysis buffer; Western blot
(In general: In western blotting, separated proteins are transferred to a membrane and probed.)

Protein sequences, listed by entry. Tags and fused reporters are not part of them. Lines headed by an entry give the natural chain unless they say otherwise; changes in a name come on top.
UniProt Q9D8X5: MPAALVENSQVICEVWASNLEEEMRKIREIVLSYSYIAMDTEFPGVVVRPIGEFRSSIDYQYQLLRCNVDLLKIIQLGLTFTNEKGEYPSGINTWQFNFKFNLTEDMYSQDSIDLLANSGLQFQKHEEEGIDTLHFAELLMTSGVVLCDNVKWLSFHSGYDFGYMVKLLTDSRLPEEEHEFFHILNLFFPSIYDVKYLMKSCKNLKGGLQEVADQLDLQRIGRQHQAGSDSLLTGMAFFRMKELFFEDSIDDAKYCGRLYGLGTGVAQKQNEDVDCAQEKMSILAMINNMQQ
UniProt Q60809: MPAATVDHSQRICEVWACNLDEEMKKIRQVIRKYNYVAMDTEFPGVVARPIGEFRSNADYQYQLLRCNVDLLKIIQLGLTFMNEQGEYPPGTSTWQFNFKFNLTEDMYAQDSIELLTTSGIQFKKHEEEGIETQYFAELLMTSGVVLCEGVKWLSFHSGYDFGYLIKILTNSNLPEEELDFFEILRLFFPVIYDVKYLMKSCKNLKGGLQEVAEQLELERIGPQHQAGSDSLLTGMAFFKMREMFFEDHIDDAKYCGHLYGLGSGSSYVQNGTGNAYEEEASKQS
UniProt Q6ZQ08: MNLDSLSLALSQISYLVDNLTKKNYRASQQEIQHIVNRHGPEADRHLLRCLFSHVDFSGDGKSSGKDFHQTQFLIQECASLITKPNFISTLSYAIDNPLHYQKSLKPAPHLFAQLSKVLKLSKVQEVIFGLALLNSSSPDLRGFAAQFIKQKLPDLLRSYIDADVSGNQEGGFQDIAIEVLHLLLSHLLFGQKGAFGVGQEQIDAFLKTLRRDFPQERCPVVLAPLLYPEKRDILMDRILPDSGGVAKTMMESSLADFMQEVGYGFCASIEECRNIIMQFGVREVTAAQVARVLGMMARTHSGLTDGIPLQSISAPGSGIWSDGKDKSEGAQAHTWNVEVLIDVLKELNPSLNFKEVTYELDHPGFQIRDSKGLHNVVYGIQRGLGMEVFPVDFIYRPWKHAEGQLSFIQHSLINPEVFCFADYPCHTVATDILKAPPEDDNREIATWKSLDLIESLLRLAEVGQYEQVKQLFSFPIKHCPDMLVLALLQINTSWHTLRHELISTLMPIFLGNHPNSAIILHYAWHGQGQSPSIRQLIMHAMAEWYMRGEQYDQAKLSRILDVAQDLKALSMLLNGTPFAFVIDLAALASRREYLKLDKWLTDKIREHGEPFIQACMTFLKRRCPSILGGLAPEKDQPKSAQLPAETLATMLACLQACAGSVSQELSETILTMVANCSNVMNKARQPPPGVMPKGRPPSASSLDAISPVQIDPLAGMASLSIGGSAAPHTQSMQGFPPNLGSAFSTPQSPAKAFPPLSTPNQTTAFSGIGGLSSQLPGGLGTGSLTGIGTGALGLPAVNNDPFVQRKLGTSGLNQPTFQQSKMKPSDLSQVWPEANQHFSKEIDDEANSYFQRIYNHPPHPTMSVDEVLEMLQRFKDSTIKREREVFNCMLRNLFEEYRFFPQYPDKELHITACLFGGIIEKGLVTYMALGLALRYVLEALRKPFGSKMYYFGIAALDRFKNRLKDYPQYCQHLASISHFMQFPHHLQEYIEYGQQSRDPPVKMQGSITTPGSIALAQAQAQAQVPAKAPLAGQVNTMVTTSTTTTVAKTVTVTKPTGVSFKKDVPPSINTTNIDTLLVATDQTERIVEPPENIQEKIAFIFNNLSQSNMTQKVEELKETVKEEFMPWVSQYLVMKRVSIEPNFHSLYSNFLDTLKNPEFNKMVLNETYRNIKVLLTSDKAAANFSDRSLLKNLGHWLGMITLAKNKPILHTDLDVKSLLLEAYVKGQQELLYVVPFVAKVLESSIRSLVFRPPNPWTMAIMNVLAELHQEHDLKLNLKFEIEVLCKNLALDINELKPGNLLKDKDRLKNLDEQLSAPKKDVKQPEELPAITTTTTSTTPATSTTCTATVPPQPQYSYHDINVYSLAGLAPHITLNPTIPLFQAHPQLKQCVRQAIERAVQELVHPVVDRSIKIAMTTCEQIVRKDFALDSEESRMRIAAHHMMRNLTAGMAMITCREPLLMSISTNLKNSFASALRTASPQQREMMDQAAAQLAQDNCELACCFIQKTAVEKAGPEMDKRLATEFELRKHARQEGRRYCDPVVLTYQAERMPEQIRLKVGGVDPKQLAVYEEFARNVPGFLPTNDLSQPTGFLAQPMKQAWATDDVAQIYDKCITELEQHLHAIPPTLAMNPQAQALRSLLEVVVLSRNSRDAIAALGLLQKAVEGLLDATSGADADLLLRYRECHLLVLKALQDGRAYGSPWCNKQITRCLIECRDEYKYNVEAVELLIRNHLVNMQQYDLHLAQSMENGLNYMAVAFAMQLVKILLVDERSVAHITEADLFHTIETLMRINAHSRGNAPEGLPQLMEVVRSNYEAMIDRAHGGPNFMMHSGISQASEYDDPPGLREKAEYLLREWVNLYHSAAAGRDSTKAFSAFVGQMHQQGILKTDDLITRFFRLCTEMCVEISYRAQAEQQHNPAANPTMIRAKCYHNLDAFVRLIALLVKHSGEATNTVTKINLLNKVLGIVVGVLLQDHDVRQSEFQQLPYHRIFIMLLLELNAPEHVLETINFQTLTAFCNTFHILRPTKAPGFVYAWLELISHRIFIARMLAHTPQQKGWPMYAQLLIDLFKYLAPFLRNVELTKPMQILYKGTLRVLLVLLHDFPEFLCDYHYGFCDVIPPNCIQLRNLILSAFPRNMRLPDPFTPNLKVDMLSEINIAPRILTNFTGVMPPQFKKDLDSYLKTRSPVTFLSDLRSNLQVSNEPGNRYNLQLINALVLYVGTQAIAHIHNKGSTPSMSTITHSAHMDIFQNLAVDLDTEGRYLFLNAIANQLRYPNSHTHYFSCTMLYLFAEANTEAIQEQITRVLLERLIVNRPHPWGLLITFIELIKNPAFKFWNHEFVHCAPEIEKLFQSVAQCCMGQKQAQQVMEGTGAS
UniProt P29341: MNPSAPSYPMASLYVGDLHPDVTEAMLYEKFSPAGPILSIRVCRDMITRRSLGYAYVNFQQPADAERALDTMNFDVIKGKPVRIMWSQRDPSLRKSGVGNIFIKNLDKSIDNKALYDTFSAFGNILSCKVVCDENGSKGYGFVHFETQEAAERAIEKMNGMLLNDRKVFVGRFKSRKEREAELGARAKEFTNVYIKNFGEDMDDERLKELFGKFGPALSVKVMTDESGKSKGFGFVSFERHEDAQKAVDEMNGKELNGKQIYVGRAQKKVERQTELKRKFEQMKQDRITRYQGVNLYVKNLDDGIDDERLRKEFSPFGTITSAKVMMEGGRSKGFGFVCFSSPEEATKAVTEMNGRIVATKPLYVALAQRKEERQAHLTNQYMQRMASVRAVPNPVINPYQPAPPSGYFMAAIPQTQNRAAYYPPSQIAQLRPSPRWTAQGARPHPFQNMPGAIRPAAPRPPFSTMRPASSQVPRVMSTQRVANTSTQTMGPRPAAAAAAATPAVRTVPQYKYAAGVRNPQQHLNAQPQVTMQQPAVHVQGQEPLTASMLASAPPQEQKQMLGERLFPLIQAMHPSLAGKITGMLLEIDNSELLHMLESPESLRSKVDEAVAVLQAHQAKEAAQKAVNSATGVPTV

For assay [1], the target named is FLAG-tagged Cnot8 FL (normal Cnot8 full length) (mouse) (UniProt Q9D8X5).
For another assay, the target named is T1, FLAG-Tob1 (mouse) (UniProt Q61471).
T1 sequence: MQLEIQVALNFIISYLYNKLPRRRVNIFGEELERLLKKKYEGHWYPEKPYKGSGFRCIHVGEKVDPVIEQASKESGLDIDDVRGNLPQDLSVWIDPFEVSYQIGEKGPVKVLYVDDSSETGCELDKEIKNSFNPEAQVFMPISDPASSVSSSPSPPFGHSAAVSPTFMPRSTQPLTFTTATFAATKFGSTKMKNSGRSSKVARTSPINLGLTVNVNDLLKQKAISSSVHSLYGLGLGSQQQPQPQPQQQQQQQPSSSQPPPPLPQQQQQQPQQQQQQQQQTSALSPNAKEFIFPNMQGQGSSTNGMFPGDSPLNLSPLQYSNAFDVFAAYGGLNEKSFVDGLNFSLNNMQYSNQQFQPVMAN

Assay [2] concerns the target FLAG-tagged Cnot7 FL (mouse) (UniProt Q60809).
The target is the same in assay [3]. This is another data set of the same source.
For assay [4], the target named is FLAG-tagged Cnot8 FL (normal Cnot8 full length) (mouse) (UniProt Q9D8X5). This is another data set of the same source.
Assay [5] addresses 3×FLAG-pHIV-EGFP-Cnot8 E247A/Y260A (Mut3) (mouse) (UniProt Q9D8X5).

Read-outs that look alike come from different tables or passages of the source. No constants are given. Whether binding was seen depends on the method and setting. Binding seen in cells or lysates may run through a third protein. Some results given as binding are weak or reduced against the parent protein; the word gives no strength. For part of these data: Where a sequence is shown, tags or fusion partners need not be part of it.

Drawing on PMC9071485, this text covers binding for 5 molecules.

For Cnot1 (from UniProt Q6ZQ08 1-2375), the binding result in assay [1] is “binds”.
On the same count and under the same terms, with “Cnot7 (from UniProt Q60809 1-285) (enzyme)” the entry was “no binding”.
On to “Cnot8 (from UniProt Q9D8X5 1-292) (enzyme)”, for which, in the assay with FLAG-Tob1 (mouse), the binding entry is “binds”.
As to “cytoplasmic poly(A)-binding protein 1 (Pabpc1) (from UniProt P29341 1-636)”, the binding result (in the assay with FLAG-Tob1 (mouse); in assay [2]; in assay [1]) was “binds” throughout.

B1: Tob1 (protein, UniProt Q61471 1-362)
chain: MQLEIQVALNFIISYLYNKLPRRRVNIFGEELERLLKKKYEGHWYPEKPYKGSGFRCIHVGEKVDPVIEQASKESGLDIDDVRGNLPQDLSVWIDPFEVSYQIGEKGPVKVLYVDDSSETGCELDKEIKNSFNPEAQVFMPISDPASSVSSSPSPPFGHSAAVSPTFMPRSTQPLTFTTATFAATKFGSTKMKNSGRSSKVARTSPINLGLTVNVNDLLKQKAISSSVHSLYGLGLGSQQQPQPQPQQQQQQQPSSSQPPPPLPQQQQQQPQQQQQQQQQTSALSPNAKEFIFPNMQGQGSSTNGMFPGDSPLNLSPLQYSNAFDVFAAYGGLNEKSFVDGLNFSLNNMQYSNQQFQPVMAN
As to B1, the binding entry is listed as “binds” in assay [3], “binds” in assay [4] and “no binding” in assay [5].
